Measured values as given in the supplement of paper PMC4996465.
Counter-ions that a name gives are not always drawn. Viability of KB3-1 and Nalm-6 cells after 48 h of drug alone (CellTiter-Glo), 11 doses over about 4.5 log units. % of DMSO wells, lower = more cell loss; AC50 from the fitted curve, lower = more potent. No active / inactive call. Nalm-6 was screened in two runs. AC50 is listed only for well-fitted inhibitory curves. KB3-1 is a HeLa-derived carcinoma line, Nalm-6 a B-cell precursor leukaemia line.

Assays:
KB3-1 [1] = experiment: viability (% of DMSO control); higher = more viable cells
Protocol: (§1)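 Eleven-dose screen of the NCATS MIPE 3 library on cells without co-treatment; CellTiter-Glo after 48 h, as % of DMSO wells.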

Nalm-6 [2] = experiment: as above
Protocol: as §1

KB3-1 [3] = experiment: log AC50 of viability decrease (48 h) (log10 M); higher = less potent
Protocol: (§2)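 Eleven-dose screen of the NCATS MIPE 3 library on cells without co-treatment; CellTiter-Glo after 48 h. AC50 from the curve fit; only inhibitory curves of the better fit classes are listed.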

Nalm-6 [4] = experiment: as above
Protocol: as §2

Structure (SMILES)	viability (KB3-1 [1]; 0.00078 µM) [%]	viability (KB3-1 [1]; 0.00234 µM) [%]	viability (KB3-1 [1]; 0.00702 µM) [%]	viability (KB3-1 [1]; 0.0211 µM) [%]	viability (KB3-1 [1]; 0.0632 µM) [%]	viability (KB3-1 [1]; 0.19 µM) [%]	viability (KB3-1 [1]; 0.569 µM) [%]	viability (KB3-1 [1]; 1.71 µM) [%]	viability (KB3-1 [1]; 5.12 µM) [%]	viability (KB3-1 [1]; 15.4 µM) [%]	viability (KB3-1 [1]; 46.1 µM) [%]	viability (Nalm-6 [2]; run: 1, 0.00078 µM) [%]	viability (Nalm-6 [2]; run: 1, 0.00234 µM) [%]	viability (Nalm-6 [2]; run: 1, 0.00702 µM) [%]	viability (Nalm-6 [2]; run: 1, 0.0211 µM) [%]	viability (Nalm-6 [2]; run: 1, 0.0632 µM) [%]	viability (Nalm-6 [2]; run: 1, 0.19 µM) [%]	viability (Nalm-6 [2]; run: 1, 0.569 µM) [%]	viability (Nalm-6 [2]; run: 1, 1.71 µM) [%]	viability (Nalm-6 [2]; run: 1, 5.12 µM) [%]	viability (Nalm-6 [2]; run: 1, 15.4 µM) [%]	viability (Nalm-6 [2]; run: 1, 46.1 µM) [%]	viability (Nalm-6 [2]; run: 2, 0.00078 µM) [%]	viability (Nalm-6 [2]; run: 2, 0.00234 µM) [%]	viability (Nalm-6 [2]; run: 2, 0.00702 µM) [%]	viability (Nalm-6 [2]; run: 2, 0.0211 µM) [%]	viability (Nalm-6 [2]; run: 2, 0.0632 µM) [%]	viability (Nalm-6 [2]; run: 2, 0.19 µM) [%]	viability (Nalm-6 [2]; run: 2, 0.569 µM) [%]	viability (Nalm-6 [2]; run: 2, 1.71 µM) [%]	viability (Nalm-6 [2]; run: 2, 5.12 µM) [%]	viability (Nalm-6 [2]; run: 2, 15.4 µM) [%]	viability (Nalm-6 [2]; run: 2, 46.1 µM) [%]	log AC50 of viability decrease (KB3-1 [3])	log AC50 of viability decrease (Nalm-6 [4]; run: 1)	log AC50 of viability decrease (Nalm-6 [4]; run: 2)
CN(C)C/C=C/C(=O)Nc1cc2c(Nc3ccc(F)c(Cl)c3)ncnc2cc1O[C@H]1CCOC1 [Afatinib]	94.8	91	92.3	91.4	92.1	85.4	86.1	61.4	45.8	28.2	-0.992	92.4	96.6	94.6	98.9	82.9	73.2	57.2	34.7	22.3	2.36	-1.04	104	97.3	94.3	97.3	93.3	83.8	69	52.9	3.54	2.27	-0.498	-5.18	-5.93	-5.83
CO[C@H]1/C=C\C=C(\C)C(=O)NC2=CC(=O)C(NCCN(C)C)=C(C[C@@H](C)C[C@H](OC)[C@H](O)[C@@H](C)/C=C(/C)[C@@H]1OC(N)=O)C2=O [Alvespimycin hydrochloride]	101	56.9	62.3	66	60	66	56.4	57.5	17.7	12.5	3.79	91.9	67.7	44.3	33.8	20.6	20.4	14	16.4	6.36	6.36	2.61	101	76.4	48.7	33.9	22.1	20.8	11.8	11.5	6.27	4.47	2.51	-5.48	-8.28	-8.23
S=C(NCc1ccc2c(c1)OCO2)N1CCN(c2ncnc3c2oc2ccccc23)CC1 [Amuvatinib]	105	106	108	109	103	102	87.6	80.1	82.3	84.8	70	127	124	115	115	98.3	88.5	72.6	66.4	66.2	67.6	23.5	102	109	97.3	101	96	89.2	76.5	71.1	61.5	68.8	12.7	-6.43	-5.88	-4.73
Cc1cccc(/C=N/Nc2cc(N3CCOCC3)nc(OCCc3ccccn3)n2)c1 [Apilimod]	104	106	105	114	110	105	105	103	99.3	93.2	46.1	116	120	103	110	111	85.2	78.6	71.9	67.4	62.6	1.17	107	105	98.7	105	94.7	70.8	63.6	55.5	45	38.2	-0.554	-4.68	-4.83	-5.33
CNC(=O)c1ccccc1Sc1ccc2c(/C=C/c3ccccn3)n[nH]c2c1 [Axitinib]	101	99.4	101	102	108	98.7	98.3	70.4	71.2	68.9	56.8	105	98.1	104	108	103	102	65.9	55.8	43.6	39.4	15.4	107	107	104	108	106	95	72.2	74.6	54.3	52.6	8.49	-5.98	-5.93	-5.18
Cc1nc2cnc3ccc(C#Cc4cccnc4)cc3c2n1-c1ccc(C(C)(C)C#N)cc1 [BAG-956]	104	104	105	103	76.5	63.8	47.9	43	40	33	27.8	117	116	117	121	99.7	89.3	57.6	50	40.9	14	5.65	107	104	112	112	105	85.2	71.7	49.6	40.1	9.95	0.809	-6.88	-6.03	-5.73
Cn1c(=O)n(-c2ccc(C(C)(C)C#N)cc2)c2c3cc(-c4cnc5ccccc5c4)ccc3ncc21 [BEZ235]	101	101	91.6	79.6	62.4	47.1	42.4	47.6	42.4	38.3	29.6	98.6	92.6	96.5	88.5	77.1	57.6	63	60.5	50.2	35.2	15.9	102	103	103	98.8	90.8	72.8	68.9	56.7	40.9	35.7	11.1	-7.48	-5.53	-5.43
